Experimental data taken from PubChem BioAssay AID760 (NMMLSC, 2007).
Screen size: about 190,000 compounds; about 360 (0.19%) were called active. This list was built around the results that the source calls inconclusive (neither active nor inactive); the mix of calls is not that of the screen.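 How the source made its calls: active means GTP binding activity at least 20 points away from 100%, either lowered or raised; inconclusive means signal likely due to the compound's own green fluorescence; inactive means the rest.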

Each molecule was assayed against Ras-related protein Rab-2A (Canis lupus familiaris) (UniProt P61105) (assay: Rab2 wt fluorescent GTP binding changes, either direction – biochemical, dog, bead-based flow cytometry, multiplex, primary screen (AID 760;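 further: 0% = beads with excess unlabeled GTP and 100% = no-compound control corrected for plate trend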)). Settings: GST-Rab2 wt beads, Bodipy-GTP binding, at 10 µM.
With `O=C(Nc1ccc2c(c1)nc1n2CCSC1)c1ccco1` the GTP binding activity was inconclusive: 91%.
`Cc1ccc2cc(C#N)c(NCCNC(=O)C3CC3)nc2c1C` was tested, and the GTP binding activity was inconclusive: 94%.
In the case of `Cn1ncc(N=Cc2c(O)ccc3ccccc23)c1C(=O)Nc1cccc(Cl)c1`, the GTP binding activity is reported as inconclusive: 104%.
`COc1cc(C(=O)OC2CCN(C)CC2)cc(OC)c1OC` was tested, and the GTP binding activity was inconclusive: 101%.
`Cc1ccc(CNC(=O)CSc2nc3n[nH]c(C)c3c(=N)n2-c2cccc(C)c2)cc1` was tested, and the GTP binding activity was inconclusive: 90%.
With `COc1ccc(N2CCC(CNC(=S)Nc3cccc(C)c3)C2)cc1` (configuration not stated) the GTP binding activity was inconclusive: 101%.
For `CCc1ccc2nc(N)sc2c1`, the GTP binding activity was inconclusive: 97%.
`COC(=O)C(C)Sc1ccc2nnc(-c3ccc(F)cc3)n2n1` (configuration not stated) was tested, and the GTP binding activity was inconclusive: 114%.
With `COc1cccc(CN2CCNC(=O)C2CC(=O)NCCn2cccn2)c1OC` (configuration not stated) the GTP binding activity was inconclusive: 93%.
For `O=C(OCc1nnc(-c2ccccc2)o1)c1ccc(Cl)cc1`, the GTP binding activity was inactive: 91%.
For `CCOC(=O)C1=C(NC(=O)c2ccc(Br)o2)Nc2ccccc2N=C1`, the GTP binding activity was inconclusive: 99%.
For `COc1ccc(-c2nc(C(F)(F)F)c(OC)o2)cc1OC`, the GTP binding activity was inactive: 100%.
In the case of `CN(NS(=O)(=O)c1ccc(Cl)cc1)c1ncc(C(F)(F)F)cc1Cl`, the GTP binding activity is reported as inactive: 92%.
`CC(C)(C)c1ccc(C(=O)CC(Sc2ccc(Cl)cc2)C(=O)O)cc1` (configuration not stated) was tested, and the GTP binding activity was inconclusive: 74%.
In the case of `Cc1nnc(-c2ccccc2)[nH]c1=O`, the GTP binding activity is reported as inactive: 97%.
For `CCOc1ccc(-c2cc(C(=O)OC)[nH]n2)cc1`, the GTP binding activity was inconclusive: 250%.
For `Cc1ccc(S(=O)(=O)N2CCCCC2)cc1NC(=O)C1CCCO1` (configuration not stated), the GTP binding activity was inactive: 95%.
With `O=C(NC(=S)Nc1ccc(F)c([N+](=O)[O-])c1)c1ccccc1F` the GTP binding activity was inconclusive: 86%.
For `COC(=O)c1sc2ccccc2c1-n1cccc1C(=O)C(=O)Nc1ccccc1`, the GTP binding activity was inconclusive: 94%.
`CC(C)Cc1nc2oc3c(Cl)ncnc3c2c2c1CCC2` was tested, and the GTP binding activity was inactive: 99%.
In the case of `CC(=O)Nc1ccc(S(=O)(=O)n2nc(-c3ccc(C)cc3)nc2N)cc1`, the GTP binding activity is reported as inconclusive: 105%.
With `CCOc1ccc(NC(=O)/C=C/c2ccc(OC)cc2)c([N+](=O)[O-])c1` the GTP binding activity was inconclusive: 100%.
For `Cc1ccc(NC(=S)NN2CCN(C)CC2)c(C)c1`, the GTP binding activity was inconclusive: 100%.
`COc1ccccc1C(=O)N/C(=C/c1ccc(Br)cc1)C(=O)N1CCCC1` was tested, and the GTP binding activity was inactive: 99%.
For `CCN(CC)S(=O)(=O)c1cnccc1N1CCN(c2cccc(Cl)c2)CC1`, the GTP binding activity was inactive: 102%.
With `Cc1ccc(-n2c(-c3ccco3)n[nH]c2=S)cc1` the GTP binding activity was inconclusive: 84%.
`Clc1ccc(Sc2ccc(/C=N/n3cnnc3)o2)cc1` was tested, and the GTP binding activity was inconclusive: 106%.
`O=S(=O)(c1ccc(F)cc1)N1CCCC(CO)C1` (configuration not stated) was tested, and the GTP binding activity was inconclusive: 109%.
In the case of `COc1ccc(-c2csc(NC(=O)Cc3cccc4ccccc34)c2C(=O)O)cc1`, the GTP binding activity is reported as active: 75%.
In the case of `COc1ccc(CCNC(=O)C(=O)Nc2nccs2)cc1OC`, the GTP binding activity is reported as inactive: 99%.
For `Cc1cccc2[nH]c(CN(C)Cc3nc(CC4CC4)no3)nc12`, the GTP binding activity was inactive: 102%.
In the case of `O=C(NCCCN1CCOCC1)c1ccccc1`, the GTP binding activity is reported as inconclusive: 104%.
`Cc1cccc(-n2ccnc2SCC(=O)Nc2cc(C)on2)c1` was tested, and the GTP binding activity was inconclusive: 102%.
In the case of `CC(=O)Nc1nc(C)c(-c2csc(Nc3ccccn3)n2)s1`, the GTP binding activity is reported as inconclusive: 96%.
With `CCOC(=O)C1(C)NC(c2ccco2)C2C(=O)N(CC)C(=O)C21` (configuration not stated) the GTP binding activity was inactive: 97%.
In the case of `Cc1ccc(C(=O)N2CCN(c3ncccn3)CC2)o1`, the GTP binding activity is reported as inconclusive: 101%.
With `Cc1ccc(S(=O)(=O)c2cc3c(=O)n4ccccc4nc3n(Cc3ccco3)c2=N)cc1C` the GTP binding activity was inactive: 103%.
For `O=C(Nc1ccc(N2CCN(C(=O)c3cccs3)CC2)cc1)c1cccnc1`, the GTP binding activity was inactive: 101%.
`c1ccc2[nH]c(CSc3nc4ccccc4s3)nc2c1` was tested, and the GTP binding activity was inconclusive: 106%.
For `O=C(Cn1nc2ccccc2n1)N/N=C/c1cc([N+](=O)[O-])ccc1O`, the GTP binding activity was active: 70%.
In the case of `CC(C)NC(=O)C12CC3CC(C1)CC(n1cnc(Cl)n1)(C3)C2`, the GTP binding activity is reported as inactive: 107%.
For `COC(=O)c1c(N)sc(C(=O)N2CCOCC2)c1C`, the GTP binding activity was inconclusive: 103%.
With `O=C(NCCO)/C(=C\c1cccs1)NC(=O)c1cccs1` the GTP binding activity was inconclusive: 100%.
With `O=C(NCCc1c[nH]c2ccccc12)/C(=C/c1cccnc1)NC(=O)c1ccco1` the GTP binding activity was inactive: 96%.
`Cc1ccc(C(=O)C(C)OC(=O)c2cc3cc([N+](=O)[O-])ccc3oc2=O)cc1` (configuration not stated) was tested, and the GTP binding activity was inconclusive: 84%.
`C[C@@H]1CN(C(=O)c2nc3ccc(Cl)cn3c2CN2CCc3sccc3C2)C[C@H](C)O1` was tested, and the GTP binding activity was inactive: 91%.
With `COCCn1c(SCC(=O)N2CCCCC2)nc2ccccc2c1=O` the GTP binding activity was inconclusive: 109%.
`O=C1CC(c2cc([N+](=O)[O-])ccc2Cl)c2c(ccc3ccccc23)N1` (configuration not stated) was tested, and the GTP binding activity was inactive: 99%.
In the case of `Brc1cccc(-c2cnco2)c1`, the GTP binding activity is reported as inactive: 97%.
For `CCOC(=O)CSc1ccc2nnc(-c3cccs3)n2n1`, the GTP binding activity was inactive: 90%.
`COc1cc(N2CCCC2)c(OC)cc1/C=C(/C#N)c1ccc(F)cc1` was tested, and the GTP binding activity was inconclusive: 116%.
With `Cc1sc2nc3c(SC(C)C(=O)O)cc(C(=O)c4ccccc4O)cn3c(=O)c2c1C` (configuration not stated) the GTP binding activity was inactive: 85%.
`O=C(NCCc1c[nH]c2ccccc12)C1CCC(Cn2c(=S)[nH]c3ccccc3c2=O)CC1` (configuration not stated) was tested, and the GTP binding activity was inconclusive: 101%.
`COc1ccccc1NC(=O)CN(c1ccc(C)cc1)S(=O)(=O)c1c(C)n[nH]c1C` was tested, and the GTP binding activity was inactive: 98%.
With `Cc1cc(-c2ccccc2)nc(SCC(=O)N2CCCC2)n1` the GTP binding activity was inactive: 96%.
`CCc1ccc(OCCCC(=O)O)c(Br)c1` was tested, and the GTP binding activity was inconclusive: 109%.
`COc1cc(CN2CCN(C(C)C)C(CCO)C2)ccc1OCc1ccccc1` (configuration not stated) was tested, and the GTP binding activity was inactive: 97%.
`COc1cc(C(=O)Nc2cc(C)ccn2)cc(OC)c1OC` was tested, and the GTP binding activity was inconclusive: 103%.
`CO/N=C/c1ccc(N2CCCC2)c([N+](=O)[O-])c1` was tested, and the GTP binding activity was inconclusive: 89%.
For `Cc1ccc(CNC(=O)c2ccccc2N)cc1`, the GTP binding activity was inconclusive: 101%.
In the case of `COc1ccc(-n2nnnc2SCc2nc(N)nc(N3CCOCC3)n2)cc1`, the GTP binding activity is reported as inconclusive: 101%.
With `O=C(CCS(=O)(=O)c1cc(Br)cc2c1N(C(=O)C1CC1)CC2)NCc1ccco1` the GTP binding activity was inconclusive: 108%.
